# The whole screen tested about 310,000 compounds, of which about 14,000 (4.5%) showed an effect of 50% or more. Effects have a minus sign here. Some of the results follow.
# Biological target: human ether-à-go-go-related gene (hERG) potassium channel (human, UniProt Q12809)
# Test: primary screen, population patch clamp on CHO cells stably expressing hERG
# 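Further: peak tail current of the secondary pulse compared with the same well before compound.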
# human ether-à-go-go-related gene (hERG) potassium channel, sequence (Q12809 whole entry, looked up): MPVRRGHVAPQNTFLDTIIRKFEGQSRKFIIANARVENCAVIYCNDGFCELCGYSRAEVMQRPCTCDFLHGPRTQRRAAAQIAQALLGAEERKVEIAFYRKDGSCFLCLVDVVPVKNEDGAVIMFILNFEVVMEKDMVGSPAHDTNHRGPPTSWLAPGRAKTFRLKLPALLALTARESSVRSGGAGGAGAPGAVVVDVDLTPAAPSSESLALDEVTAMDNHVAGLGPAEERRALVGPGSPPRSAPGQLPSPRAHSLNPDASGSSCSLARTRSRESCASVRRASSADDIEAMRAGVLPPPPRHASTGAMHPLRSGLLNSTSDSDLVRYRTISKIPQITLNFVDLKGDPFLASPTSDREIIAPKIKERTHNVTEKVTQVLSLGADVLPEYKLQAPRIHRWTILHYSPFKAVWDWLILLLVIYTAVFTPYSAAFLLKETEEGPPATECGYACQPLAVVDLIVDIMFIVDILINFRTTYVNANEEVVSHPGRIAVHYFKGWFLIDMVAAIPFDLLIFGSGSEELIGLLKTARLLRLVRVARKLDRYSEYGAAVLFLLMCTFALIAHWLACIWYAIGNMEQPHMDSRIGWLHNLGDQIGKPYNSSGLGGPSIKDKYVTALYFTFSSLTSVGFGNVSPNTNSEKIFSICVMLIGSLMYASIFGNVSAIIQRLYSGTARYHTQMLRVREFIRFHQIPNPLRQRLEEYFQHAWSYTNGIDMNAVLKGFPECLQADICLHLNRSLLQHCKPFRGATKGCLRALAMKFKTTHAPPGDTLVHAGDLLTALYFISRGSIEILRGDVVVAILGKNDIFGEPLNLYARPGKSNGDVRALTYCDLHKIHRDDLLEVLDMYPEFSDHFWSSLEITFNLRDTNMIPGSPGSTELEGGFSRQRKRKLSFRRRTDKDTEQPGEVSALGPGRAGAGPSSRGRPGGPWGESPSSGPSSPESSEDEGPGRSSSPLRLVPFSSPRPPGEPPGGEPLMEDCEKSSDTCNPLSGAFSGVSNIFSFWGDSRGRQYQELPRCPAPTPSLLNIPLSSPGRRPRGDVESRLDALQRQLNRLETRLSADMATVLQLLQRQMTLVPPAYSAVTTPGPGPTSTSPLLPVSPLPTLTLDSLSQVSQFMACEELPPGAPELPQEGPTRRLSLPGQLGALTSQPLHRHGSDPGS
row,SMILES,"hERG current change (%, negative = inhibition) at 10uM"
1,C/C=C/Cn1c(SCCCc2ccccc2)nc2c1c(=O)[nH]c(=O)n2C,-35.7%
2,Cc1c(CNCC(C)c2ccccc2)c(C(=O)O)c(C)n1Cc1ccccc1 (centres unmarked),-10%
3,Cc1ccc(NC(=O)CSc2nc3c(c(=O)[nH]2)CN(Cc2ccc(F)cc2)CC3)cc1C,-8.41%
4,Cc1nc2c(ccc3nc(NC(=O)C(c4ccccc4)c4ccccc4)sc32)s1,20.6%
5,O=C(CNS(=O)(=O)c1ccc2ccccc2c1)OCc1csc(-c2ccccc2)n1,0.647%
6,O=C(Nc1cccc2cccnc12)c1cc(F)c(F)cc1Cl,17.6%
7,CCN(CC)CCn1c(NCc2ccco2)nc2ccccc21.Cl,-73%
8,Cc1cc2cccc(C)c2nc1SCC(=O)N(C)c1nc(-c2ccccc2)cs1,7.45%
9,CCN(CC)S(=O)(=O)c1ccc(S(=O)(=O)N(CC(=O)Nc2ccccc2)CC2CCCO2)cc1 (centres unmarked),-18.6%
10,COC(=O)C1=C(C)N(CC2CC2)C(=NCCN2CCOCC2)N[C@H]1c1ccccc1,-19.3%
11,Cc1cccc(Nc2nc(-c3c(C)nc4ccccn34)cs2)c1,0.479%
12,Nc1n[nH]c(N)c1N=Nc1ccc(Cl)cc1,1.38%
13,CC(CS(=O)(=O)c1ccc2c(c1)NC(=O)CS2)C(=O)NCc1ccccc1Cl (centres unmarked),-0.823%
14,OCC[C@@H]1C[C@H](O)[C@@H](O)[C@]2(Cc3ccccc3CCO2)O1,8.2%
15,CCc1cc(=O)oc2c(C)c(OCC(=O)NCCCn3ccnc3)ccc12,-45.9%
16,CC(C)(C)C(=O)Nc1cc(NC(=O)C(C)(C)C)cc(C(=O)NNC(=O)c2ccncc2)c1,16.5%
17,CN(C)S(=O)(=O)c1ccc(Cl)c(C(=O)Nc2ccccc2[N+](=O)[O-])c1,-21.9%
18,CCCn1c(SCC(=O)/C(C#N)=C(\C)N)n[nH]c1=O,7.25%
19,CC1CCCC(C)N1/N=C/c1ccc(C(=O)O)cc1 (centres unmarked),5.77%
20,Clc1nc(Cl)nc(NCCC2=CCCCC2)n1,0.247%
21,Cc1ccccc1C(=O)Nc1scc(-c2ccc(Br)cc2)c1C(=O)O,8.3%
22,COc1cccc(Oc2ccc(C(F)(F)F)cc2NC(=O)CCc2nc3ccccc3c(=O)[nH]2)c1,-16.4%

row,SMILES,"hERG current change (%, negative = inhibition) at 10uM"
1,CC(/C=N/NC(=O)c1cccs1)=C\c1ccco1,-1.92%
2,CC(C)OP(=O)(c1ccc(N(C)C)cc1)C(O)c1ccc(C(C)C)cc1 (centres unmarked),7.66%
3,CCOC(=O)c1ccc(Nc2nc(=O)c3cccnc3s2)cc1,-7.17%
4,CCN(CC1CCCO1)C(=O)CCc1nnc(Cc2ccc3c(c2)OCO3)o1 (centres unmarked),34.4%
5,C=CCn1cccc(C(=O)Nc2ccc(OC)cc2)c1=O,-2.33%
6,COc1ccc(NC(=S)Nc2ccc3snnc3c2)cc1,41%
7,CCOC(=O)c1ccccc1NC(=O)CSc1cccc[n+]1[O-],1.48%
8,NC(=O)C1CCN(Cc2nc(-c3ccccc3)no2)CC1,-14.1%
9,COCCn1c(=O)[nH]c(=O)c2c1nc(-c1ccc(-c3ccc(Cl)cc3[N+](=O)[O-])o1)n2Cc1ccccc1,-10.3%
10,COc1ccc(C(=O)/C=C/Nc2c(C)n(C)n(-c3ccccc3)c2=O)c(OC)c1,0.857%
11,CCOC(=O)c1sc2nc(C)nc(SC(C)C(=O)N(C)c3ccccc3)c2c1C (centres unmarked),-15%
12,COc1ccc(NC(=O)Cc2c(F)cccc2Cl)c(OC)c1,2.66%
13,CCCN(CC(=O)Nc1cccc(S(N)(=O)=O)c1)CC(=O)Nc1ccc(F)c(F)c1F,-3.56%
14,O=C(c1ccccc1)c1cccn1CC(=O)N1CCN(c2ccc(F)cc2)CC1,-30.1%
15,CN(C)CCN(C(=O)c1ccc2ccccc2c1)c1nc2ccc(Br)cc2s1.Cl,13.2%
16,COCCNC(=O)c1cccc2c1-c1ccccc1C2=O,-3.85%
17,O=C(Nc1ccc2c(c1)OCO2)c1ccc2c(c1)OCO2,22.2%
18,Cn1c(SCC(=O)Nc2nccs2)nnc1C12CC3CC(CC(C3)C1)C2,-6.22%
19,COC(=O)[C@@]1(C)CC[C@]2(C)CC[C@@]3(C)C(=CC(=O)C4[C@@]5(C)CC[C@H](O)C(C)(C)[C@@H]5CC[C@]43C)[C@H]2C1 (some centres unmarked),16.7%
20,COC(=O)[C@@H](Cc1c[nH]c2ccccc12)NC(=O)CCC(=O)c1ccc(Br)cc1,-6%
21,CCCc1c(C)[nH]c2ccccc2c1=O,2.07%
22,Cc1cc(C)cc(NC(=O)CSc2nnnn2-c2cccnc2)c1,6.91%

row,SMILES,"hERG current change (%, negative = inhibition) at 10uM"
1,COc1cccc2c(=O)c(C(=O)O)c[nH]c12,-0.514%
2,CC(NS(=O)(=O)c1ccc2c(c1)CC(=O)N2C)c1ccccc1 (centres unmarked),9.13%
3,COc1cc(C2CC(c3cccs3)=NN2C(=O)CCl)ccc1OC(F)F (centres unmarked),17%
4,O=c1[nH]c(Nc2ccccc2)cc2ccccc12,1.33%
5,COc1ccc(NC(=O)CSc2nnc3c4c(nc(-c5ccccc5)n23)CC(C)(C)OC4)cc1,-6.16%
6,CCn1cc(C(=O)NCCCN2CCCC2)c(=O)c2cc(S(=O)(=O)N3CCc4ccccc4C3)ccc21,-8.75%
7,Cc1ccc(C(=O)OCC(=O)NCc2cccs2)c(C)c1,22.5%
8,CCC(=O)Nc1nc(CC(=O)Nc2ccccc2)cs1,18.2%
9,CC1(C)Cc2cccc(OCC(=O)N3CCN(c4ccc([N+](=O)[O-])cc4)CC3)c2O1,-70.3%
10,O=C(CSc1nc2ccccc2c(=O)n1NC(=O)Cc1ccccc1)NCc1ccccc1,-4.05%
11,Cc1ccc(-c2nc3ncccc3o2)cc1NC(=O)c1cc2ccccc2o1,0.219%
12,O=S(=O)(N1CCOCC1)N1CCOCC1,24.6%
13,CN1CCN(C(=O)c2cc(-c3ccco3)on2)CC1,19.7%
14,CC(=C/c1ccccc1)/C=N/Nc1nc(N2CCCCC2)nc(N2CCCCC2)n1,4.75%
15,Cc1ccc(S(=O)(=O)CCC(=O)N(Cc2nnc(-c3ccc(Cl)cc3)o2)C2CC2)cc1,-12.7%
16,COc1ccc(NC(=O)C(NC(=O)c2ccc(=O)[nH]c2)c2ccc(OC)cc2)cc1 (centres unmarked),-1.51%
17,COc1cc(C(CC(=O)Nc2ccc(C)cn2)N2Cc3ccccc3C2=O)cc(OC)c1OC (centres unmarked),-1.38%
18,O=C(Nc1ccc(Cl)cc1)N1CCOC12CCCCC2,2.95%
19,O=C(N/N=C\C=C\c1ccc2c(c1)OCO2)C1COc2ccccc2O1 (centres unmarked),-26.5%
20,CCCCn1c(=O)n(C)c(=O)c2c3c(sc21)COC(C)(C)C3,-11.1%
21,O=C(N/N=C\c1cn(-c2ccccc2)nc1-c1ccccc1)c1ccc(Br)o1,-0.855%
22,C=CCn1c(CCNC(=O)c2ccccc2F)nnc1SCC(=O)Nc1nc(C)cs1,-5.2%

row,SMILES,"hERG current change (%, negative = inhibition) at 10uM"
1,COC(=O)C1CC(=O)N(CCc2c[nH]c3ccccc23)C1 (centres unmarked),-2.54%
2,CC(C)(C)C1CCc2c(sc(NC(=O)CSc3nnc(-c4ccccc4)o3)c2C#N)C1 (centres unmarked),16.2%
3,O=C(c1ccc(Cl)cc1Cl)N1CCC(C(=O)N2CCOCC2)CC1,9.99%
4,O=C(CN1CCOCC1)Nc1ccc(Oc2ccc(NC(=O)CN3CCOCC3)cc2)cc1,5.59%
5,O=C(O)c1ccc(C2CCCCC2)cn1,7.42%
6,CC(=O)NCCNC(=O)c1ccc(Cn2c(=O)[nH]c3ccsc3c2=O)cc1,22.3%
7,Cc1ccccc1SCC(=O)Nc1cccc(C#N)c1,-10.7%
8,Cc1ccc(S(=O)(=O)NCC(=O)NCC(=O)NC(C)c2ccccc2Br)cc1C (centres unmarked),-8.12%
9,C=CCC(=O)NC1CC(C)(C)Cc2c1cnn2-c1ccccc1C (centres unmarked),4.35%
10,COC1=CCC2([N+](=O)[O-])CN(CCO)CC1([N+](=O)[O-])C2 (centres unmarked),7.75%
11,CCCn1c(=O)c2c(nc3n2CCS3)n(C)c1=O,16.5%
12,CC(=NCCCn1ccnc1)c1c(O)n(C)c(=O)n(C)c1=O,-9.42%
13,CCN(CC)c1ccc(C2C(C(=O)Nc3ccccn3)=C(C)NC3=C2C(=O)CC(C)(C)C3)cc1 (centres unmarked),-31.7%
14,Cn1cc(Cl)c(C(=O)Nc2nc3ccc([N+](=O)[O-])cc3s2)n1,29.3%
15,CCOC(=O)c1c(NC(=O)c2cccs2)sc(C(=O)N2CCOCC2)c1C,-55.5%
16,O=C(COc1cccc(C(F)(F)F)c1)Nc1ccc(S(=O)(=O)N2CCCC2)cc1,5.48%
17,Cc1cc(C)nc(N2CCCC(C(=O)NCc3cccc(C(F)(F)F)c3)C2)n1 (centres unmarked),16.7%
18,O=C(CSC1CS(=O)(=O)c2cc([N+](=O)[O-])ccc21)NNC(=O)c1ccccc1 (centres unmarked),-20.7%
19,CCn1c(=O)c(C(=O)Nc2ccccn2)c(O)c2ccccc21,5.38%
20,CN(CC(=O)Nc1ccc(Cl)cc1)C(=O)CCc1nc2sc3c(c2c(=O)[nH]1)CCCC3,-22.1%

# — article PMC4336329 (PLoS ONE, 2015)
